Reference: the supplement of paper PMC11417369
The list shows a part of the results.

What follows are sequences tested on PfHDP1 homeodomain (GST-tagged) (assay: gcPBM binding intensity (ln(normalized median fluorescence intensity)); higher = stronger DNA binding).
Procedure, shortened: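 GST-tagged P. falciparum DNA-binding domains, expressed in E. coli (about 25 μg on average), were applied for 1 h to an Agilent 4 × 180k array of primer-extended double-stranded 36-bp intergenic genomic probes plus negative controls. The binding buffer was 1× PBS with 1% milk, 0.2 mg/ml BSA, 0.5% salmon testes DNA and 0.03% Triton X-100. Bound protein was detected with Alexa488 anti-GST antibody and scanned at 488 nm. Binding intensity is the highest Masliner-normalised natural-log median intensity across replicate spots of either probe orientation.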
In the case of “TATAAATATATATGTACACACATATACATGTTGAAT [CACACA_site3118]”, the “gcPBM binding intensity (ln)” value is reported as 6.69.
“TATAAACATAAATATACACACAAACATCTATGTATT [CACACA_site4804]” was tested, and the “gcPBM binding intensity (ln)” value was 6.52.
With “TATGTATGCCTGTTTTGTACTTAAGAAAATGTTGCT [XGTACX_site8443]” the “gcPBM binding intensity (ln)” value was 6.34.
With “AAAAAAAAAAAAAAAAGTACATAATATAAAATCTAA [XGTACX_site6019]” the “gcPBM binding intensity (ln)” value was 6.32.
“TATGTAAAAACAGGCACACATATATCATATATATAT [CACACA_site619]” was tested, and the “gcPBM binding intensity (ln)” value was 8.2.
In the case of “TTATTTTTTAAAAGTAGTACAAATTTTTATAGAAAA [XGTACX_site7407]”, the “gcPBM binding intensity (ln)” value is reported as 6.27.
With “CAATATTTGTTATGGGTGCAAACCGCATATATATAA [GTGCAC_site9543]” the “gcPBM binding intensity (ln)” value was 9.01.
For “ATTCCTTGGTTGTATAGTACTTTGGTTAAACATAAA [XGTACX_site6967]”, the “gcPBM binding intensity (ln)” value was 6.88.
“TAAAAAAGAAAATATATACACACCAAAAAAAAAAAA [CACACA_site3146]” was tested, and the “gcPBM binding intensity (ln)” value was 6.28.
With “ATTAAATCCGCACGCACACACACATATTAATAAAAA [CACACA_site3992]” the “gcPBM binding intensity (ln)” value was 7.74.
In the case of “AATATTAAAGAATAATGTACAAAATAAAAGCAAAGA [XGTACX_site3550]”, the “gcPBM binding intensity (ln)” value is reported as 7.55.
With “ACATGTCTTAAAAGACGTACATATAAAAGAACCCTA [XGTACX_site8940]” the “gcPBM binding intensity (ln)” value was 6.88.
“AAACAAAAAAATTGAAATAAAATGAAGTAAATGAAC [TGCATGCA_negctrl_site129]” was tested, and the “gcPBM binding intensity (ln)” value was 7.14.
With “TTAAATATATGTAATACGCACACTTAATATTTTGAG [CACACA_site4170]” the “gcPBM binding intensity (ln)” value was 7.01.
In the case of “AAAAAAAAAAAAAAAACATGCAATAAAGTGTGCGTA [TGCATGCA_site982]”, the “gcPBM binding intensity (ln)” value is reported as 7.36.
“TTTTGGTGGGTTACAAGTACTCAAAATGGATTGTTA [XGTACX_site1951]” was tested, and the “gcPBM binding intensity (ln)” value was 6.62.
For “TTTCGAAAAACAACAAGAAAAAAAAAAAAAAAAAAA [XGTACX_negctrl_site449]”, the “gcPBM binding intensity (ln)” value was 6.24.
With “TCACATACATTACTTACACACCATATTGATATATAC [CACACA_site6353]” the “gcPBM binding intensity (ln)” value was 7.01.
With “TATCTCATAGTATACACACACACACGCGCACATATA [CACACA_site6917]” the “gcPBM binding intensity (ln)” value was 7.63.
For “TGTATATATTATATTTGTACATATAAAACTATATGT [XGTACX_site4782]”, the “gcPBM binding intensity (ln)” value was 6.35.
With “ATTAACATTTTCGTATGTACATATATAATATATGTT [XGTACX_site7184]” the “gcPBM binding intensity (ln)” value was 6.86.
For “TTTCCAAATACAACTACACACAAACAAAAATTATAT [CACACA_site4641]”, the “gcPBM binding intensity (ln)” value was 7.02.
In the case of “ATGTTTATTTATTTATGTACTTATATATTTATATAT [XGTACX_site7924]”, the “gcPBM binding intensity (ln)” value is reported as 6.78.
In the case of “AATAAAAATAAAAATTGTACACTTTTTTAATATTTA [XGTACX_site892]”, the “gcPBM binding intensity (ln)” value is reported as 6.18.
For “CAAAATATTTATATCACACATATAAATAAAAATAAA [CACACA_site6028]”, the “gcPBM binding intensity (ln)” value was 6.47.
In the case of “TATTAATTTCACCTTTCACATATGGAAAAAAAAAAA [CACACA_negctrl_site1243]”, the “gcPBM binding intensity (ln)” value is reported as 6.64.
With “AATGTGCACACGCGTACACACAAAAAAAGAAAAAAA [CACACA_site7031]” the “gcPBM binding intensity (ln)” value was 10.2.
For “TATTATTTGAGTAGTTGTACTCATTAATATATAAAA [XGTACX_site3468]”, the “gcPBM binding intensity (ln)” value was 5.98.
In the case of “ATTTTATTTTTTTGAAGTACGAATTCCGAGAAGAAA [XGTACX_site43]”, the “gcPBM binding intensity (ln)” value is reported as 6.6.
With “TATTCAAAAATATAAACAATGAAACAGTATAATATG [CACACA_negctrl_site1482]” the “gcPBM binding intensity (ln)” value was 6.45.
For “TATAGTTCTTCTATTTGTACATATATTATTATTTAA [XGTACX_site895]”, the “gcPBM binding intensity (ln)” value was 6.39.
With “AAGAAAAAGACTTCATGAAAAAGAATTTTTTTAATT [TGCATGCA_negctrl_site473]” the “gcPBM binding intensity (ln)” value was 5.86.
With “TTATAATCAATGAATACACACATATATTTAATTAAT [CACACA_site3613]” the “gcPBM binding intensity (ln)” value was 6.4.
For “ATATATTTTTTTTTTATTTTATTATTATAATTTATC [XGTACX_negctrl_site16]”, the “gcPBM binding intensity (ln)” value was 6.33.
For “TAATATTATTTTTCAGTGCAATATAACCTTAGAATT [GTGCAC_site9417]”, the “gcPBM binding intensity (ln)” value was 9.18.
In the case of “TAATATAATAATAATTGTACTTTTCATAGTGTAATT [XGTACX_site8152]”, the “gcPBM binding intensity (ln)” value is reported as 6.1.
“ATTATAATTATCAAGGTGCGTGTATTATAATAAATA [GTGCAC_site9917]” was tested, and the “gcPBM binding intensity (ln)” value was 7.29.
With “AAAAAAAAAAAACACACACACAAAATAAACAAACAA [CACACA_site2721]” the “gcPBM binding intensity (ln)” value was 6.96.
“AATAAATTAAATAAAAATGTTTAACATAAAATATGA [GTGCAC_negctrl_site373]” was tested, and the “gcPBM binding intensity (ln)” value was 6.4.
With “ATATATCAAGGGAGTGAATGTTATGCATATGAATAT [TGCATGCA_negctrl_site573]” the “gcPBM binding intensity (ln)” value was 6.74.
For “GGATATTATATAAAGTGTACAAGACAAATATATACA [XGTACX_site8173]”, the “gcPBM binding intensity (ln)” value was 6.15.
With “AAATTAACAAACTGTAGTACTAACAATATATACAAA [XGTACX_site1772]” the “gcPBM binding intensity (ln)” value was 6.41.
In the case of “TATTCTTACAAAAGTAGTACAATCATTCATATTTTT [XGTACX_site631]”, the “gcPBM binding intensity (ln)” value is reported as 6.42.
In the case of “AAAAATGAAAAATGAAAAATGAAAAATGAAAAATAA [CACACA_negctrl_site695]”, the “gcPBM binding intensity (ln)” value is reported as 6.55.
With “TAGTTTCAAGTAGGACGTACATATAAAAGGATTTTT [XGTACX_site7136]” the “gcPBM binding intensity (ln)” value was 6.43.
In the case of “AAAGAAATGAAATATACACACATACATATATACATA [CACACA_site9335]”, the “gcPBM binding intensity (ln)” value is reported as 6.36.
For “AATTAAAAAAGTAATTAACACACAATAATGTAATGC [CACACA_site9388]”, the “gcPBM binding intensity (ln)” value was 6.51.
For “GTTCTGTAAATACGTGCACACACAAATCACAAATGT [CACACA_site7999]”, the “gcPBM binding intensity (ln)” value was 9.67.
In the case of “TTTTTTTTCTTTTTTTGTACATAATAATATATAAAT [XGTACX_site6778]”, the “gcPBM binding intensity (ln)” value is reported as 5.98.
In the case of “GATATATTTTATATATGTACATACAATGGTAAATAT [XGTACX_site2759]”, the “gcPBM binding intensity (ln)” value is reported as 6.68.
With “AACTGTAAAAAATATAAACACACATAGAAATATATA [CACACA_site8002]” the “gcPBM binding intensity (ln)” value was 6.49.
With “TATGTGTGAAAAAAATGTACATATATATAAATTATA [XGTACX_site7202]” the “gcPBM binding intensity (ln)” value was 6.65.
With “ATATATATATATAATAGTACATATATTTTGAAAGAT [XGTACX_site5800]” the “gcPBM binding intensity (ln)” value was 8.75.
For “TATATAAACATATAAACATGCAATATATATATGTTA [TGCATGCA_site765]”, the “gcPBM binding intensity (ln)” value was 6.06.
With “AAAAAAATTAAATCAAGTACTCATTCTTAAATTATA [XGTACX_site1274]” the “gcPBM binding intensity (ln)” value was 5.76.
With “AAAAATATATAACAAAGTACATATATATTTAGTAAT [XGTACX_site8791]” the “gcPBM binding intensity (ln)” value was 6.28.
